Hit rate of the full screen: of about 1,100 compounds, about 430 (39%) were called active. So high a share suggests a set chosen from earlier hits. The inconclusive results got no clear call from the source; some entries with a clear call stand among them for comparison. Calls come from the whole dose curve; as a rule, active = well fitted inhibition curve with a large enough effect; inconclusive = small, poorly fitted or top-dose-only effect, or effect the other way; inactive = flat fitted curve, though single readings scatter. A potency beside an inconclusive call is a rough fit, not a confirmed value.
Molecular target: ATP-dependent 6-phosphofructokinase (Trypanosoma brucei brucei) (UniProt O15648)
UniProt O15648, sequence (O15648 whole entry, looked up): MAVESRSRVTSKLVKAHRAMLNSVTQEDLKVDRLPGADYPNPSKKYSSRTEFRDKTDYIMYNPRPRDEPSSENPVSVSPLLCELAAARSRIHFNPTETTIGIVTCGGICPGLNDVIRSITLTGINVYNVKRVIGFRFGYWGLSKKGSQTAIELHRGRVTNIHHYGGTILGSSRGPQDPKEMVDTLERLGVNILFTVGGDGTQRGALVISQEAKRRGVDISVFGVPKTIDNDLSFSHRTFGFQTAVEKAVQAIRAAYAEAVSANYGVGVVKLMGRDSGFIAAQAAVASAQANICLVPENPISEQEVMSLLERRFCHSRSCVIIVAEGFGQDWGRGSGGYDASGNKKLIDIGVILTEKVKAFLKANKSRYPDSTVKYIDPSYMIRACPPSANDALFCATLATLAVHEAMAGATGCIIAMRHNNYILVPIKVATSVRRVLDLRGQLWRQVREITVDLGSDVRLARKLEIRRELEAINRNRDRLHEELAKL
Test: Inhibitors of T. brucei phosphofructokinase: Hit Validation; note: nearly all actives have a fitted effect of over 60% in size
Settings: purified T. brucei PFK, ADP-Glo luminescence, 45 min; series mostly up to 57.5 µM
Potency is the fitted concentration of half-maximal effect; tags give direction and shape of the fitted curve.

Q: `COC(=O)c1[nH]c2ccccc2c1NC(=O)CN1CCCc2ccccc21` was tested. Which Potency did it give?
A: inconclusive: 16.9 µM [activator, partial curve]

Q: Which Potency does the source give for `Nc1nc2ccccc2n1Cc1ccc(Cl)c(Cl)c1` here?
A: inconclusive: 30.1 µM [inhibitor, single point]

Q: With `O=C(c1cc2cc([N+](=O)[O-])ccc2oc1=O)n1cccn1` as the molecule, how does the Potency read?
A: inactive

Q: For `O=C1OC(/C(=C\Nc2ccc(F)cc2F)[N+](=O)[O-])c2ccccc21` (stereo unspecified), which Potency is on record?
A: inactive

Q: `Cc1cc([N+](=O)[O-])ccc1NCc1cccc([N+](=O)[O-])c1` was tested. Which Potency did it give?
A: inconclusive: 37.9 µM [inhibitor, single point]

Q: With `CC(C(Sc1ccccc1N)c1ccccc1)[N+](=O)[O-]` (stereo unspecified) as the molecule, how does the Potency read?
A: inconclusive: 30.1 µM [inhibitor, single point]

Q: `O=C(NCC(F)(F)F)c1ccc(S(=O)(=O)Nc2ccccc2N2CCCC2)cc1` was tested. Which Potency did it give?
A: inconclusive: 12 µM [activator, partial curve]

Q: With `Cc1c(Br)c([N+](=O)[O-])nn1CC(=O)Nc1cccc2nonc12` as the molecule, how does the Potency read?
A: active: 2.69 µM

Q: With `COc1cc(/C=C/c2[nH]c(=O)[nH]c(=O)c2[N+](=O)[O-])cc([N+](=O)[O-])c1O` as the molecule, how does the Potency read?
A: inconclusive: 16.9 µM [activator, partial curve]

Q: How did the Potency turn out when `Cc1nc2cc(NC(=O)COc3ccc(C#N)cc3)ccc2n1-c1ccccc1` was run?
A: inconclusive: 30.1 µM [inhibitor, partial curve]

Q: For `CC(=O)Nc1ccc(SCC(=O)c2ccc(Br)s2)cc1`, which Potency is on record?
A: inactive

Q: `Cc1ccc(/C=c2\sc3nc(-c4ccco4)nn3c2=O)o1` was tested. Which Potency did it give?
A: inconclusive: 5.36 µM [inhibitor, partial curve, poor fit]

Q: For `Cc1ccc(C)c(-n2sc3ccc(F)cc3c2=O)c1`, which Potency is on record?
A: active: 16.9 µM

Q: Which Potency does the source give for `O=c1/c(=C\c2cc([N+](=O)[O-])cc([N+](=O)[O-])c2O)sc2nc3ccccc3n12` here?
A: inactive

Q: With `CCN1/C(=C/C=C/c2oc3ccc(-c4ccccc4)cc3[n+]2CC)Oc2ccc(-c3ccccc3)cc21` as the molecule, how does the Potency read?
A: inconclusive: 19 µM [activator, partial curve]

Q: For `Cc1c(Br)c(O)c(Br)c2sc(=O)oc12`, which Potency is on record?
A: inactive

Q: Which Potency does the source give for `CCc1nnc(NC(=O)C(=O)NCCOC(=O)c2ccccc2Cl)s1` here?
A: inconclusive: 9.53 µM [activator, partial curve]

Q: `CC(=O)Nc1cccc(NC(=S)Nc2ccc(F)c(Cl)c2)c1` was tested. Which Potency did it give?
A: inconclusive: 26.9 µM [inhibitor, single point]

Q: With `Cc1c(C(=O)OCc2ccccc2)[nH]c2c1C(=O)CC(c1ccco1)C2` (stereo unspecified) as the molecule, how does the Potency read?
A: inconclusive: 10.7 µM [inhibitor, partial curve]

Q: How did the Potency turn out when `CC1Cc2cc(/C(O)=C3/C(=O)C(=O)N(CCCn4ccnc4)C3c3cccc([N+](=O)[O-])c3)ccc2O1` (stereo unspecified) was run?
A: active: 21.3 µM

Q: `Cc1ccc(-n2c(N)c(C(=O)N3CCN(C)CC3)sc2=S)cc1` was tested. Which Potency did it give?
A: active: 9.53 µM

Q: `CCN(CC)CCOC(=O)c1ccc(N/C=C(/C#N)c2nc(-c3cc4ccccc4oc3=O)cs2)cc1` was tested. Which Potency did it give?
A: inconclusive: 0.478 µM [activator, full curve]

Q: Which Potency does the source give for `N=c1ccn(Cc2cccc(Cl)c2)cc1` here?
A: active: 19 µM

Q: Which Potency does the source give for `S=C(NCc1ccc(Cl)cc1)Nc1ccncc1` here?
A: active: 12 µM

Q: Which Potency does the source give for `COc1ccc(C)cc1-n1nnnc1SCC(=O)NC(=O)NCc1ccco1` here?
A: inactive

Q: With `O=C(O)c1cc2ncc(-c3[nH]ncc3[N+](=O)[O-])cn2n1` as the molecule, how does the Potency read?
A: inconclusive: 6.75 µM [activator, partial curve]

Q: How did the Potency turn out when `N#Cc1cccc(NC(=O)COC(=O)c2cccc(N3C(=O)c4ccccc4C3=O)c2)c1` was run?
A: inconclusive: 12 µM [inhibitor, partial curve]

Q: `O=C(O)c1ccc(Nc2ncnc3c2cnn3Cc2ccccc2)cc1` was tested. Which Potency did it give?
A: inconclusive: 30.1 µM [inhibitor, single point]

Q: For `COc1ccc(CC(=O)OCC(=O)NC2CC2)cc1`, which Potency is on record?
A: inactive

Q: How did the Potency turn out when `N#Cc1ccc2ccn(CC(=O)NCc3ccco3)c2c1` was run?
A: active: 30.1 µM

Q: `O=C(O)C(Cc1ccccc1)N1C(=O)/C(=C/C=C/c2ccco2)SC1=S` (stereo unspecified) was tested. Which Potency did it give?
A: inconclusive: 37.9 µM [inhibitor, single point]

Q: For `C=C(C)C(=O)Nc1cccc(C2=NOC3(C2)C[C@@H](C(N)=O)N(C(=O)CC(c2ccccc2)c2ccccc2)C3)c1` (stereo partly specified), which Potency is on record?
A: inconclusive: 2.69 µM [inhibitor, full curve, poor fit]

Q: `O=C(N/N=C/c1ccncc1)c1ccc(NC(=O)c2cccc(Cl)c2)cc1` was tested. Which Potency did it give?
A: inconclusive: 23.9 µM [activator, single point]

Q: How did the Potency turn out when `O=C(NCc1cccnc1)C(=O)NCC1OCCN1S(=O)(=O)c1ccc(F)cc1` (stereo unspecified) was run?
A: inactive

Q: `S=C(NCCCN1CCOCC1)N1CCN(c2cccc(Cl)c2)CC1` was tested. Which Potency did it give?
A: active: 26.9 µM

Q: `O=C(OCC(=O)N1CCN(c2cccc(Cl)c2)CC1)c1ccco1` was tested. Which Potency did it give?
A: inconclusive: 30.1 µM [inhibitor, single point]

Q: Which Potency does the source give for `Cc1nnc(NC(=O)c2cc(-c3ccco3)nc3ccccc23)s1` here?
A: inconclusive: 16.9 µM [inhibitor, partial curve]

Q: How did the Potency turn out when `COc1ccc(NS(=O)(=O)c2ccc(C)c(NC(=O)CN3C(=O)NC4(CCCC4)C3=O)c2)cc1` was run?
A: inconclusive: 15.1 µM [activator, partial curve]

Q: Which Potency does the source give for `O=C(NCc1cccc(Cl)c1)c1ccc2c(c1)OCO2` here?
A: active: 30.1 µM

Q: `O=C(O)CCC(=O)Nc1ccc(SSc2ccc(NC(=O)CCC(=O)O)cc2)cc1` was tested. Which Potency did it give?
A: active: 16.9 µM

Q: `Cc1ccc(NC(=O)COc2ccc(Cl)cc2Cl)cc1S(=O)(=O)N1CCOCC1` was tested. Which Potency did it give?
A: inconclusive: 33.8 µM [inhibitor, single point]

Q: `O=C(Nc1cnn(Cc2ccc(Cl)c(Cl)c2)c1)C12CC3CC(CC(C3)C1)C2` was tested. Which Potency did it give?
A: inconclusive: 30.1 µM [inhibitor, partial curve]

Q: For `COc1nccnc1NS(=O)(=O)c1ccc(NCc2cc(Br)ccc2O)cc1`, which Potency is on record?
A: inactive

Q: For `CCN1CC(CNC(=O)c2ccc3nc(Cc4cccc(Cl)c4)oc3c2)CC1=O` (stereo unspecified), which Potency is on record?
A: active: 15.1 µM

Q: For `N#CC1=C(N)C(C#N)(C#N)C(c2ccc[nH]2)C2CCCC=C12` (stereo unspecified), which Potency is on record?
A: inactive

Q: With `Cc1ccc(C(=O)NC(=S)Nc2ccc(-c3ccc(CO)o3)cc2)cc1` as the molecule, how does the Potency read?
A: inactive

From PubChem BioAssay AID504637 (National Center for Advancing Translational Sciences (NCATS), 2011)
